Source: publication PMC12136788
The list shows a part of the results.

B1: chr11:46405157:46405158:+_ENSG00000110492_ENST00000395566|hu_hu|hu_hu_hu_mus_False|58_78 (ssRNA)
RNA: GGGAGUUCUACAGUCCGACGAUCCCCUCCCCACUUUGGGCACUUGGUGUGGGCGUGAAGGCAGGGCCGUGAUUGACAAAGCUAACGGGAAGACAAAAGGCACUGGUGGGUUAUAUCUUGGGCCUGUGGGAGAGGAGGGCUCCGCAACAGAGGAUUGAGCAUCA
B2: chr9:14812383:14812384:-_ENSMUSG00000031934_ENSMUST00000164273|mus_mus|mus_mus_mus_hu_True|48_68 (ssRNA)
RNA: GGGAGUUCUACAGUCCGACGAUCAUAGCCCAGGUAGAUACACGCUAACAGUAUAAUGAUGAGUGUCACCAGCCGGCAGCUAAUGUAUUUCAUGAUUAAAUUAUUAGAAUUUUUCUUUGUCUUCAAGUACUGCUCCACAAUUGGCAACAGAGGAUUGAGCAUCA
B3: chr13:74460350:74460351:-_ENSMUSG00000021577_ENSMUST00000022062|mus_hu|FALSE|FALSE (ssRNA)
RNA: GGGAGUUCUACAGUCCGACGAUCUCACAAGAAUGAAGCAAGGGACAAAGGUAAGUGCCACGCUCCCUGGCCACUGGGUUCCUGGCAAGCUCCCAGCCACUAGGUGCCAAUCUCCCUUCAAUGUACUCCUUCUUCCCCAGAGUGCAACAGAGGAUUGAGCAUCA
B4: chr2:241070358:241070359:-_ENSG00000172428_ENST00000607357|hu_hu|motif|central (ssRNA)
RNA: GGGAGUUCUACAGUCCGACGAUCGAACAGAAUCAUCUAGGUCGUUAAGAACAGUCUUAUCUUUCUGGUUAACCAGGUCCGGAAUUCAAGGGAUUUCCACGUGUUCUUUAAAACCACCUGAAACUGUCCUGCGCAGGCUCACACCAACAGAGGAUUGAGCAUCA
B5: chr11:55313332:55313333:+_ENSMUSG00000018583_ENSMUST00000018727|mus_mus|motif|central (ssRNA)
RNA: GGGAGUUCUACAGUCCGACGAUCCUCUUUACAAUCUAUUCCUCCUAAAGUAUCAUUCCGGAAAACUGGGAAUGAAGGACGGAGGGGUCAGGGGAGGAAAGGGGGUUGGGAGCACACACCAUGAACACAAGCGAAAUGAAAAUUCAACAGAGGAUUGAGCAUCA
B6: chr1:160275524:160275525:-_ENSG00000122218_ENST00000241704|hu_mus|motif|central (ssRNA)
RNA: GGGAGUUCUACAGUCCGACGAUCACACAGAGCAUCCAGCUUGCGGUUACAGAUCACAAUGGCAUGCUUGGCCAGUAACGCGGCAUGAGACAUGUCUGCCGACCAGAUAACAUAUUUCACCUUGGAAAUCUUCACUGAUGCCAGCAACAGAGGAUUGAGCAUCA
B7: chr6:31457689:31457690:+_ENSMUSG00000025609_ENSMUST00000142469|perfect_dup|FALSE|FALSE (ssRNA)
RNA: GGGAGUUCUACAGUCCGACGAUCGAUGAGGUCUACCAGGUUGCCUUUAGGAGGAGUCAUGCUGUCAGGAAAGAAAUUUACUAAGGUGUCAAAGAGCUGAGUUCUUUGAGCAUAGGUGUGAUCCACAUCAGAAAAGCCCAGAGCCAACAGAGGAUUGAGCAUCA
B8: chr7:141441981:141441982:+_ENSG00000106028_ENST00000265304|hu_mus|hu_hu_hu_mus_False|8_8 (ssRNA)
RNA: GGGAGUUCUACAGUCCGACGAUCCUCAUGUCUUACAAACUGACGAAAUACCUGUAACACAGGUCUUCGAAACAUGGCUUCUGUUUUUCUUACAACCUAAUCUUUAGGCUUUUCCUAAAGGAAAGAAUAACCCGAGCAAAAUGACAACAGAGGAUUGAGCAUCA
B9: chr10:33214929:33214930:-_ENSG00000150093_ENST00000302278|hu_mus|FALSE|FALSE (ssRNA)
RNA: GGGAGUUCUACAGUCCGACGAUCAACAAGUUCAUUGAAAAACUCUCCUCUGUCAGUAAGACUAAGCACAUUUUUGUAGCUAAAUGGGCUGGUGCAGUUUUGUUCACUUGUACAAGGAUUUCUUAGCUUUGCUGGGGUUGUGCUCAACAGAGGAUUGAGCAUCA
B10: chr10:7421922:7421923:+_ENSMUSG00000040021_ENSMUST00000165952|mus_mus|FALSE|FALSE (ssRNA)
RNA: GGGAGUUCUACAGUCCGACGAUCAUCAGACUGACCACCACCAUUCUGAACUCCAGGUCGCCCUGGUGUAAAGUUAAAUUUGCUAGUACUCUGCAUGAUGAUGGGUUGUCUACCAACUGGAACAGAACUAAUGGCCCUCUGAGCCAACAGAGGAUUGAGCAUCA
B11: chr14:56114876:56114877:+_ENSMUSG00000022211_ENSMUST00000076236|mus_hu|FALSE|FALSE (ssRNA)
RNA: GGGAGUUCUACAGUCCGACGAUCGAGGGCAUUGGCCUCAUCCGUGGCGAGGAGCCCAGGAUUCUUGCUCAGGUCCAGGUAUCGAAGGGAGCUGGCAAAUGCUGGGUUUGCCCCGAAGGUCUGGCCGAGUGCCUGGAGCCCUCGCAACAGAGGAUUGAGCAUCA
B12: chr12:39763582:39763583:-_ENSG00000139116_ENST00000544797|hu_mus|hu_hu_hu_mus_False|58_108 (ssRNA)
RNA: GGGAGUUCUACAGUCCGACGAUCCUCUAAGAAUUGGGCAUUCACUUUGAAUUCAGGAGGGGGCAGCCCGUUUUUAAUUGCUAUGUGCUUUUUCUCAUCAAUACUCUUGAACAGGUGUCUAACAGCACGAGAGAUGAUGCCCUGCAACAGAGGAUUGAGCAUCA
B13: chr15:81535460:81535461:-_ENSMUSG00000022391_ENSMUST00000052374|mus_mus|FALSE|FALSE (ssRNA)
RNA: GGGAGUUCUACAGUCCGACGAUCAGGGAGAUGAAGAUCUGCAAUCCAGACAGGAAGUACAUACCCACACACACACACCAAACCAACACAGUAUCAAAGGACCAAUAUGACACAGGAGACAAGACCCUCUCCCUUCCUCUGGUCCAACAGAGGAUUGAGCAUCA
B14: chr10:76735483:76735484:+_ENSG00000156650_ENST00000287239|hu_hu|motif|central (ssRNA)
RNA: GGGAGUUCUACAGUCCGACGAUCAGUGCAUGACUGUUUCUGAGAGACCUUUUUCCUUGGACGAUAGUGCUUUGAAAAGUCGGUAAUUUCACCUCGUGAUCUGCGACCAUCAGGUGAUGGUGUAAAAAACUUAGUAAGGCCAUCCAACAGAGGAUUGAGCAUCA

biological target: T1, UNK ZnF1-3 (human, UniProt Q9C0B0 31-174); assay: nsRBNS (natural sequence RNA bind-n-seq); RBNS binding buffer (assumed for nsRBNS): 25 mM Tris pH 7.5, 150 mM KCl, 3 mM MgCl2, 0.01% Triton X-100, 500 ug/ml BSA, 20 U/ml SUPERase-In, 4 C; UNK is unkempt and MSI1 is Musashi-1; names of the RNAs are library labels; protein concentration not given here; high values mean tight binding
T1 sequence: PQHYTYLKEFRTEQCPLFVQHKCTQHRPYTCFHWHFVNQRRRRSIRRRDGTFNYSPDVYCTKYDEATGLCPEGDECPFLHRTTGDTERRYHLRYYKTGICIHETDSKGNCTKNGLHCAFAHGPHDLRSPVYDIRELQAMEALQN

First: B1
Second: B2
The binding signal of the first is lower: 2.16 enrichment R for the first, 2.25 enrichment R for the second.

First: B3
Second: B4
The binding signal of the first is higher: 1.1 enrichment R for the first, 1.01 enrichment R for the second.

Going from B5 to B6, the binding signal falls from 1.31 enrichment R to 0.87 enrichment R.

First: B7
Second: B8
The binding signal of the first is higher: 1.71 enrichment R for the first, 0.689 enrichment R for the second.

First: B9
Second: B10
The binding signal of the first is lower: 0.767 enrichment R for the first, 1.16 enrichment R for the second.

Going from B11 to B12, the binding signal rises from 0.894 enrichment R to 1.95 enrichment R.

Compared with B13, B14 is lower in binding signal: 1.41 enrichment R for the first, 0.739 enrichment R for the second.
